In the supplement of paper PMC3334620:
Whole data set: some 33,000 sequences, median “E-score (-0.5 to 0.5)” near -0.035, cut for the highest 2% near 0.34. This is one part of the list.

molecular target: T1, Mot3 (UniProt P54785); experiment: PBM E-score (8-mer binding enrichment) (E-score (-0.5 to 0.5)); higher = stronger / more preferred TF binding; most listed sequences are background and not binding sites; settings: protein concentration: 200 nM; construct: GST-full length
T1 sequence: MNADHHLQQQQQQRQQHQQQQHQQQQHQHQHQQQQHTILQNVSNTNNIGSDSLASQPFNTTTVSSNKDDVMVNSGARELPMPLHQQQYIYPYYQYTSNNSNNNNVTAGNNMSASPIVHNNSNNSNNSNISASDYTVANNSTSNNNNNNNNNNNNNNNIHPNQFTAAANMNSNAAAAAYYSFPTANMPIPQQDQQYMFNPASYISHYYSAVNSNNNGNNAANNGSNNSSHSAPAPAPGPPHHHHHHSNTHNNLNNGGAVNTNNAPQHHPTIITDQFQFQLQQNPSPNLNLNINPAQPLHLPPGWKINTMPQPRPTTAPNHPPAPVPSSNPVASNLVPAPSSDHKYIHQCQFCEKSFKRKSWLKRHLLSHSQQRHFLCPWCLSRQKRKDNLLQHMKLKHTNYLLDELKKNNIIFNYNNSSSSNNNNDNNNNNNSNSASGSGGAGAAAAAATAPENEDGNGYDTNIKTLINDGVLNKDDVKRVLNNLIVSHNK
In short: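 GST-tagged yeast TFs (full-length or DNA-binding domain) were made by PURExpress in vitro transcription/translation and applied at about 100-200 nM to universal all-10-mer Agilent arrays. The arrays were made double-stranded by primer extension, on fresh or once-stripped slides. Bound protein was detected with fluorescent anti-GST, and scans were normalised with masliner. Each ungapped eight-base word, pooled with its reverse complement, received an E-score (modified Wilcoxon-Mann-Whitney statistic) from the Universal PBM Analysis Suite.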

Sequence	PBM E-score
ACCCGTGA	-0.212
AGCCGCTG	-0.311
GGGACCCC	-0.315
AAGGAGGT	-0.143
ACCACACC	-0.16
CTGCTAAC	-0.108
ATATGCGG	-0.167
AGCCGCTC	-0.196
CTCCTCGC	-0.269
AGGTCGGC	-0.342
AGATCCCT	-0.117
AACTCTAG	0.00906
AGCGCCAT	-0.236
ACGGAGTG	-0.268
CAAGTACC	0.127
AATGACGG	-0.203
CACAGGGG	0.118
CACTGTGC	0.0897
AAAATGAG	0.0191
GGGGAAGA	-0.264
ATCGCTAG	-0.0658
TGCGAACA	0.175
AGTTGCCA	-0.181
CTTCCCTA	-0.206
ACTCCAAA	-0.149

Sequence	PBM E-score
ACCATCCC	-0.231
CTGGTAAC	-0.0508
CCTGTCGA	0.342
CAGTCGTA	0.0388
GAAGTACC	0.00084
GTCTCGCA	-0.238
GAAATAGA	0.0538
GGCCCCCC	-0.414
CTGCGGGC	-0.066
CTGCGGCC	-0.267
GTTCGCAA	0.124
AATATCAG	-0.0765
ACTATAGT	0.134
TATAGAAA	-0.00343
AAAGTACC	0.119
CCTCCGCG	-0.0559
AGACCGTC	-0.253
ACATAGGC	0.373
CTTCTACC	0.0021
CCGATGTA	0.119
ATAGCCAC	-0.179
CATTAAAG	0.191
CGCCGGCG	-0.00049
CGCTAGAC	-0.238
CTTAAAAC	0.189

Sequence	PBM E-score
ACAACACC	0.153
AATCGGGT	-0.0444
ATTAGCTG	-0.0217
AAACATGC	0.288
AGTAACGC	0.0943
GGTTTACA	0.333
AAGGCCTG	-0.15
AGCGAATG	-0.143
ACCATACG	0.0609
AGCGGGGC	-0.189
CCATAAGA	-0.274
GAACTAGC	-0.151
CTCATGAG	-0.0531
ATCCAAAA	-0.0239
GCTTCAGA	-0.0764
ATCGAAAA	0.00249
CAGAAACG	0.0904
GCGTCACC	-0.0845
CTGAAATA	0.0144
AACCTTCC	-0.0767
GATGAAAC	0.0451
CGGGCGCA	-0.165
TAATTACA	0.372
AAAGTTTA	0.159
ATACTACA	0.246

Sequence	PBM E-score
AACTTAAA	0.212
CACCAGCG	-0.0493
ATTGGCCC	-0.299
CCGCGGAC	-0.294
AACACTGT	0.0505
AATGAGAG	-0.202
GGACGACA	0.0208
GGTAGTGA	-0.201
CGCAGAAA	-0.244
CAGTAAAG	0.0534
AACGTTTC	0.172
CTCTTACC	0.0643
GCATTCGA	-0.0683
CAGCAAAA	0.102
CCCCCGCG	-0.32
TCGTCTCA	-0.254
CTCCTCTA	-0.118
CACCAACG	-0.118
AAAGCTAC	-0.0699
ACACGGGG	0.224
AGTCAGTG	-0.157
AGGAAACC	0.42
CTTGCCCA	0.0604
GACGGAAA	-0.17
GGGTAAAA	0.112

Sequence	PBM E-score
CCGTAAAA	0.0155
AAATTTCG	-0.0216
AGCAGCCT	-0.0358
CGCTACAC	0.123
ACTTAACA	0.321
ACAAAGCA	0.168
AGCTCACG	-0.128
CGAGACAA	-0.143
ATCGTAAT	0.126
CCATTCAA	-0.0143
AGCTAATG	-0.127
ATACCTGC	0.096
AGGGACGG	-0.257
GGAGACAC	-0.149
CACTATAC	0.0582
AATGTGTA	0.289
GAGTGAAC	-0.0629
TATCGCAA	-0.0895
CAGAAGCC	-0.321
CGCCGCGC	-0.161
CATTGGCG	-0.0916
ATAGTGAC	-0.0838
CACCCAGA	-0.16
CCTTGTTC	0.0411
ATCCTAAT	-0.0605

Sequence	PBM E-score
ATCATCTA	-0.0877
ACCCAGCA	-0.053
AGGAACAG	0.434
CTACAGAC	0.0592
ATTCTAGG	0.17
GCAGCGAA	-0.14
ATGTTTTC	0.303
ATCAAATA	-0.0238
GATGTGCA	-0.0886
CAAGAACG	0.0431
ATGGTTGC	0.004
ATGACGTA	0.134
GACGACAC	0.0875
CAGATGAA	0.115
AACAGCCG	-0.0546
ACCGGCAA	-0.128
AGTTTACC	0.0908
ACAGCATA	0.133
ACTCTCCT	-0.188
AGCCAGCG	-0.32
CGGAGTGA	-0.142
CAAAGGGG	-0.0204
AGATTCAG	0.114
CCTAGGCC	-0.0992
GCCGACGC	-0.213

Sequence	PBM E-score
ACTCTCTA	-0.0457
AATGTCAG	0.0298
CAAAGATC	0.0196
GCATCTCA	-0.0798
CAAACAAG	-0.00987
CACAACTC	0.0906
AAACGCCC	-0.209
ATGCATCA	0.104
ATACAAGG	0.228
GCAGCGCA	-0.124
CTTTATCA	0.0984
TGAGGCAA	0.389
CCCGTAAC	-0.00854
AGGAAACG	0.339
ACGGTCAG	-0.0838
ACTCTATG	-0.0104
CTCCGGAG	-0.366
CACCCTTC	-0.121
TTACATAA	0.408
TCCGCGGA	-0.0925
CAACAAAA	0.252
GACTTAGA	-0.164
ACATTGAG	-0.0439
CAGTTACG	0.0221
TCCAGAAA	0.138

Sequence	PBM E-score
ATGCTATC	-0.0826
CTAAGTGA	-0.0162
ACTGTGAA	-0.0771
CAAGGCGA	-0.00267
CACTTGCA	-0.04
GGTGAGAA	-0.152
ACTCGATC	-0.173
GGGGAACA	-0.199
CGCTTCAC	-0.0668
ACTCTTGC	0.0127
AGAGTAGG	0.131
ATACCCGA	-0.0916
CTCCCGCC	-0.374
AGCAGAGG	-0.27
ACGTTCTC	0.0807
ATCTGAGG	-0.123
CGACCCAA	-0.154
GAATTGTC	0.0275
AGGGGCGA	-0.274
TTATTCAA	0.145
GTGGTTTA	0.0399
CAGAGCGA	-0.234
AACCCTCG	0.0231
CCTCGCAA	-0.138
ACATCTAA	0.094

Sequence	PBM E-score
GCGCGCCA	-0.118
GCATACGC	0.0475
AGGGTCCA	-0.297
AGTCAAAT	0.00588
ATGATAGG	-0.0315
AGCAGTAA	-0.178
ACCTCGTG	0.0532
CTCTAATA	0.15
AACAGCCA	0.153
ATTATGTG	0.165
ACTTATTG	-0.0335
AAGGGTTC	-0.142
AAACTGAA	0.0399
ACGACCGG	-0.236
CCTTTACA	0.392
CCACGATA	-0.107
CGAGTTCA	0.111
AAGGATAC	-0.00777
GGGCCTAA	-0.0056
ATGTCGTC	0.102
ACTTCGCC	-0.076
AGCGAGAG	-0.117
ATAGACGG	-0.107
CTGACCAG	-0.174
TAACTGTA	0.0391

Sequence	PBM E-score
AGTTACGC	0.0795
GCCACGAC	-0.0741
AGTAGAGG	-0.103
CTCTGTTA	0.0752
GTGTGGAA	0.135
CCATGGAA	0.0211
AATGACCT	-0.0034
ATTGGAAC	-0.0261
GCACTGTA	0.0512
TAGTATCA	0.0719
GAAAGGAA	0.29
AGGTGATG	0.0871
CTACATCA	0.112
ATTGCGCG	0.106
CATAAGGC	0.0875
ATCATTTA	0.187
GACACGGC	0.173
GGAAGCAA	-0.00737
ACCTAATC	0.114
AAAGATAT	-0.00043
GAAACATC	0.00945
CACGCCCG	-0.0362
CCAGATTC	-0.128
TCGCAGCA	-0.0628
GAATGCCC	-0.255

Sequence	PBM E-score
ATGTGGAG	-0.101
TCGCATAA	0.012
GTGATACA	0.215
AGATTGCC	0.211
CGACAATA	0.0483
CATCCGTC	-0.101
GTCCTTCA	-0.034
CTCCCAAG	-0.165
ATTAGCCC	-0.179
ATGCCTGA	0.376
AAGTTTAA	0.068
AAAGGGTT	-0.0597
CGAACGTC	-0.214
ACATACAA	0.221
GACCTGCA	-0.0447
CTCACGTA	0.0428
AATACAGT	0.143
AACGAGAC	-0.11
CATACAAA	0.203
AGGTGCTG	0.135
AAAATTAG	0.0165
AAACCCTG	0.0467
TACCCCAA	-0.217
CCCCAGCG	-0.132
CACTCGGG	-0.269

Sequence	PBM E-score
ATTGGCGA	-0.111
GTTTAGGA	0.0731
AAGGGTCT	-0.234
ACCAGTAG	-0.0459
CTTGGATA	-0.039
AATCACCT	0.0059
AGAGCGGA	-0.0946
CATGGTTA	0.157
CGAACCCA	-0.0664
AAACTCTC	-0.194
AGCCTCAT	-0.0907
ATCTCATC	-0.191
AAGGACTT	-0.132
CGCCACCG	-0.331
CAAATCCA	-0.143
CTGTACGA	0.0692
AGTGTGAG	-0.236
ATAACCCG	-0.189
CATTACGA	0.111
AACGATAA	-0.0699
CCTGGGAA	-0.0224
CCGATTCG	-0.0752
ACGGTCAA	0.05
CGTCATCC	0.0205
AAAGGATC	0.118

Sequence	PBM E-score
CCTGATCA	-0.0775
CCTCTAAA	0.0994
AGCATCTC	-0.189
ACAATGCC	0.24
GCCTTGCA	-0.00236
ATAAAGGG	-0.102
AGCAGAGC	-0.0971
AGGACGTC	-0.0355
GTCCCTAA	-0.0747
CTCGCAAA	0.0288
GACTGTAC	0.0169
CACCATCG	-0.0846
ACCCTCTC	-0.197
GCACAAAA	0.143
AAAAACCA	0.0205
GACGACGA	-0.222
GGAAATCC	-0.0837
CATGTGAG	0.0531
GCGATAAC	-0.0154
GGTATTAA	0.229
AGACTGAG	-0.132
CGGACCAC	-0.159
CATTTGTA	0.167
AAAGTTAC	0.145
AGGGGCAT	0.0444

Sequence	PBM E-score
TACAAATA	0.161
AAAGACAT	0.0698
AGCCCGCT	-0.341
CGACCATA	-0.252
ATACGTCG	0.0546
CGAACTAA	0.031
CGCCTGCA	0.23
ACGGACTG	-0.0723
AACTAGGG	-0.105
ACAAAAAA	0.259
AAACAAAA	0.127
TACCTAGA	0.252
CCCGCAAA	0.0614
CAGGAAAA	0.427
CGCGAGAA	-0.142
CTCGCCTA	-0.183
CACTGTCA	-0.0683
CCGTATGC	-0.325
AACAGATG	0.02
